The RNAGym collection of RNA variant scans (doi:10.1073/pnas.2313332121)
This sample is rich in variants without activity.

B1: TPR 5TU (parent)
chain: GGAUCUUCUCGAUCUAACAAAAAAGACAAAUCUGCCACAAAGCUUGAGAGCAUCUUCGGAUGCAGAGGCGGCAGCCUUCGGUGGCGCGAUAGCGCCAACGUUCUCAACUAUGACACGCAAAACGCGUGCUCCGUUGAAUGGAGUUUAUCAUG

Variants of: B1
Assay: polymerase ribozyme fitness, log enrichment relative to wild type (log ratio); higher = more active; in vitro selection for triplet polymerase activity
Outline: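 In triplicate, a single round of in vitro selection was run on each mutant library, PCR-built and transcribed, covering one subunit of a heterodimeric triplet polymerase ribozyme. Frozen incubation at −7 °C followed annealing with a biotinylated primer, partner subunit and triplets, and extended constructs were then gel-excised, streptavidin-captured and taken through RT-PCR. Fitness is the logarithm of genotype enrichment over wild-type enrichment, from inverse-variance-weighted replicate averages of Illumina-sequenced inputs and outputs. […] only genotypes with ≥10 input reads and ≥1 read per output were kept.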

Polymerase ribozyme fitness (log ratio), ≤ -4.2:
A47C G48A A52C A66C C85U
A47C G48C A73C C85U C96U C99G U101C
A47C G50C C96G C99A
A47C G58U U77G C93U U104A
A47C G59A G68A U82G A120C G126A
A47C G59C C63A G94A
A47C G71C C95A C125G
A47C G74U G81C C99G C108U C131G
A47C G86U A107G
A47C G92U C96G C125A C129U
A47C U55A G68A G81C C93A C96G U101C U109A
A47C U56A C87A A97G
A47C U90C C93G C103A G133C G143C
A47G A49C C96A
A47G A49G C103G
A47G A60G A64C G67C A73C C85U C93U
A47G C57U G84A U148G
A47G C75G G81A A120U
A47G C85A A91G U104G A106U U139G
A47G C87A
A47G G50A C87G A110G C125U
A47G G68A G84A G117U G140A
A47G U55A A106G A113U A138G
A47G U55G C76G A91U C131A G133U
A47G U90G U135A G143A
A47U A49C C57U C108G A142C
A47U A49G U53G C54G C87U A137G
A47U A89G U104A U109A U130G U144G
A47U C57A C87U C93A C108U G141C
A47U C72G C114U A120U
A47U C75A G83C A91U U127A
A47U C76G C96U C116G U148A
A47U C79A C114A C129A
A47U C85G A91U
A47U G50A A64C A115C
A47U G50A U55G G94A C103G U144A
A47U G59A G84A C149G
A47U G84A C105G
A47U U55A A64C
A47U U55A A73U C76G G83C C93U G140U A142U U151G
G48A A49G G88U C96U
G48A A91C A138U U139A A150U
G48A C79A U101G A142U
G48A C114U A150U
G48A G50A A122U A150G
G48A G59U G83U C131A U148C
G48A G67U A73G G124C
G48A G68C A142C
G48A G74U C85U G88A
G48A G80C A89C
G48A G92A G143U U146A
G48A U53A G71C A119C
G48A U53G G80C A138G
G48A U77C U82G U139G
G48C A49C G58C C76A U78C C87A G133A
G48C A49C G59A C85G
G48C A49U G59A U90A C96A C105A
G48C A52C C57A C85U C131U
G48C A73G G86C U104G U134C
G48C A73U C99G C118U A121C
G48C C51U A52U U104A
G48C C51U U55G C95U G141C
G48C C57A C72G U151G
G48C C57G G58A A64C G71C C79U C85U
G48C C85A U135C A150G
G48C U53A C72A A73C G83A G92U G140U G143U
G48C U55A A64G A73U U109G A122G U135G
G48C U55A U56A U78A C85A G141C
G48U A49C G50C G65A A73U C85G G141A
G48U A49U C93U
G48U A52G G68U A137C A142U
G48U A52U G84U C93A A107U G124U A137U A142G U146A
G48U A66G
G48U C79G
G48U C87G A97G C123U U135C
G48U G50C U53A A115G C118A U135C
G48U G50U C69U C85G A121C
G48U G59U G70C C93U G126U G136A A150G
G48U G62U A73U G84C C85U
G48U G83U A89C C125A U135C
G48U G84C A115U
G48U G92A U104G G128U
G48U U53A C54G G71A C75G G86A C95U A119C
A49C A52C C85A A137G U148A
A49C A52C U56A G59C C85U
A49C A52G U55A
A49C A60C G86U C105G U130G
A49C A64C G84U A107U
A49C A64G U139G
A49C A73U C96A
A49C A137G
A49C C51A A52C A98G U146C
A49C C51A G94A U109G
A49C C51G G117C
A49C C54U A60U A91C G100A G136U U139C
A49C C57A
A49C C57A G84U G136U
A49C C57A G88C
A49C C57G G74U A122G
A49C C57G U82A G112C A120U C123A G133C U148A
A49C C69U U82G G88C C99G G136A
A49C C85G C105U A106C
A49C C87A
A49C C93A C96A A138U G141U
A49C G50A
A49C G59C C69A G84A A138C
A49C G68A C79A A91G C125A A150G
A49C G68U G71A U78G C85U C96A C118A G141A
A49C G70U A98U G133U G140C
A49C G74A C85A C108A
A49C G80U G84A C118U G143U
A49C G84U C125U A137G
A49C G86U G100U A119C U130G G140U
A49C G92U
A49C G94U A98G A142C
A49C U53G U56A C57A C76U G92A A98C U101G
A49C U55A C57G A64U C72U U82G C116U
A49C U55G
A49C U61C U130A
A49C U104A U111G G112A
A49G A52U G65A C79G C93U G136A
A49G A66U C96A U101G U148C C149U
A49G A73G C85A U102A
A49G A73U A89G C93A
A49G A73U U90A C99G C114G G140C
A49G C51A C75A C93G A107C
A49G C54A C75G A91U U135C U148A
A49G C57U U78C C93G
A49G C79A
A49G C85G A91C C129U
A49G G50A A60U G92U C105A U146C
A49G G50U U61A G71U C76G U90C C95A A122U
A49G G65A A66C C79U G84U U101G
A49G G67A G124C
A49G G83U G92C U146A
A49G U53A C87A A91G U134A A147C
A49U A52G C93A A98U A122G G140C U151C
A49U A60G U61A C69A C75U C96G
A49U A66U C87U C93U A98U C108G
A49U A73G U78G A91G C93A C105G U127G
A49U A138C
A49U C79U
A49U C87U U130A
A49U G62A A66C G67A C72G
A49U G65A C87A A89U A107C C123G
A49U G83C A106U C116G C123A G133U C149G
A49U U53G A64C G128U A138C
A49U U56A C79G G141C
A49U U56A G84U C85G C87G A110U U111A C131A
A49U U82G C85G G94U A121U A138G
A49U U102G A147C U148G
G50A A52G C93G U148A
G50A A60U C63A G84U U111A C114U
G50A A60U U82G C85G C99A A107U
G50A C51A G80C G81A U139A G152A
G50A C51U G59U A60C C85U C93A C149A
G50A C54G G83U C96U A110C
G50A C76G C85G
G50A C76U C85G A106U A119G G136U
G50A C87A A91G
G50A C95G A97U A138C U139C
G50A C108G G141U A150G
G50A G68C C79U G92U A97U
G50A G70A C75A C96U A106U
G50A G88U G133C
G50A U53G C93G
G50A U55A C85G C105G C132G U135A
